# In the supplement of paper PMC8728848:
# This is one part of the list.
# B1: Gal 3C (Homo sapiens), P17931 (protein)
# chain: YGAPAGPLIVPYNLPLPGGVVPRMLITILGTVKPNANRIALDFQRGNDVAFHFNPRFNENNRRVIVCNTKLDNNWGREERQSVFPFESGKPFKIQVLVEPDHFKVAVNDAHLLQYNHRVKKLNEISKLGISGDIDLTSASYTMI
# Legend:
# Experiment in all cases: glycan array binding signal (z-score within array); higher = stronger binding
# Conditions in all cases: glycan notation: IUPAC condensed, linker removed
# [1] = target: Gal(b1-4)GlcNAc(b1-3)Gal(b1-4)GlcNAc(b1-2)Man(a1-3)[Gal(b1-4)GlcNAc(b1-3)Gal(b1-4)GlcNAc(b1-2)Man(a1-6)]Man(b1-4)GlcNAc(b1-4)[Fuc(a1-6)]GlcNAc
# Procedure, shortened: (§1)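 Columns mapping to the same glycan were averaged after glycan names were converted to IUPAC-condensed notation. The data come from 3228 arrays in the Consortium for Functional Glycomics database, limited to those with an available protein sequence. Binding is reported as a within-array Z-score averaged across arrays of one protein sequence and across linkers.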
# [2] = target: Gal(b1-4)GlcNAc(b1-3)Gal(b1-4)GlcNAc(b1-2)[Gal(b1-4)GlcNAc(b1-3)Gal(b1-4)GlcNAc(b1-6)]Man(a1-6)[Gal(b1-4)GlcNAc(b1-3)Gal(b1-4)GlcNAc(b1-2)Man(a1-3)]Man(b1-4)GlcNAc(b1-4)GlcNAc
# Procedure, shortened: as §1
# [3] = target: Gal(b1-4)GlcNAc(b1-3)Gal(b1-4)GlcNAc(b1-2)[Gal(b1-4)GlcNAc(b1-3)Gal(b1-4)GlcNAc(b1-6)]Man(a1-6)[Gal(b1-4)GlcNAc(b1-3)Gal(b1-4)GlcNAc(b1-2)Man(a1-3)]Man(b1-4)GlcNAc(b1-4)[Fuc(a1-6)]GlcNAc
# Procedure, shortened: as §1
# [4] = target: Gal(b1-4)GlcNAc(b1-3)Gal(b1-4)GlcNAc(b1-3)Gal(b1-4)GlcNAc
# Procedure, shortened: as §1
# [5] = target: Gal(b1-4)GlcNAc(b1-3)Gal(b1-4)GlcNAc(b1-3)Gal(b1-4)GlcNAc(b1-2)Man(a1-3)[Gal(b1-4)GlcNAc(b1-3)Gal(b1-4)GlcNAc(b1-3)Gal(b1-4)GlcNAc(b1-2)Man(a1-6)]Man(b1-4)GlcNAc(b1-4)GlcNAc
# Procedure, shortened: as §1
# [6] = target: Gal(b1-4)GlcNAc(b1-3)Gal(b1-4)GlcNAc(b1-3)Gal(b1-4)GlcNAc(b1-2)Man(a1-3)[Gal(b1-4)GlcNAc(b1-3)Gal(b1-4)GlcNAc(b1-3)Gal(b1-4)GlcNAc(b1-2)Man(a1-6)]Man(b1-4)GlcNAc(b1-4)[Fuc(a1-6)]GlcNAc
# Procedure, shortened: as §1
# [7] = target: Gal(b1-4)GlcNAc(b1-3)Gal(b1-4)GlcNAc(b1-3)Gal(b1-4)GlcNAc(b1-2)[Gal(b1-4)GlcNAc(b1-3)Gal(b1-4)GlcNAc(b1-3)Gal(b1-4)GlcNAc(b1-6)]Man(a1-6)[Gal(b1-4)GlcNAc(b1-3)Gal(b1-4)GlcNAc(b1-3)Gal(b1-4)GlcNAc(b1-2)Man(a1-3)]Man(b1-4)GlcNAc(b1-4)[Fuc(a1-6)]GlcNAc
# Procedure, shortened: as §1
# [8] = target: Gal(b1-4)GlcNAc(b1-3)Gal(b1-4)GlcNAc(b1-3)Gal(b1-4)GlcNAc(b1-3)Gal(b1-4)GlcNAc(b1-2)Man(a1-3)[Gal(b1-4)GlcNAc(b1-3)Gal(b1-4)GlcNAc(b1-3)Gal(b1-4)GlcNAc(b1-3)Gal(b1-4)GlcNAc(b1-2)Man(a1-6)]Man(b1-4)GlcNAc(b1-4)GlcNAc
# Procedure, shortened: as §1
# [9] = target: Gal(b1-4)GlcNAc(b1-3)Gal(b1-4)GlcNAc(b1-3)Gal(b1-4)GlcNAc(b1-3)Gal(b1-4)GlcNAc(b1-2)Man(a1-3)[Gal(b1-4)GlcNAc(b1-3)Gal(b1-4)GlcNAc(b1-3)Gal(b1-4)GlcNAc(b1-3)Gal(b1-4)GlcNAc(b1-2)Man(a1-6)]Man(b1-4)GlcNAc(b1-4)[Fuc(a1-6)]GlcNAc
# Procedure, shortened: as §1
# [10] = target: Gal(b1-4)GlcNAc(b1-3)Gal(b1-4)GlcNAc(b1-3)Gal(b1-4)GlcNAc(b1-3)Gal(b1-4)GlcNAc(b1-2)[Gal(b1-4)GlcNAc(b1-3)Gal(b1-4)GlcNAc(b1-3)Gal(b1-4)GlcNAc(b1-3)Gal(b1-4)GlcNAc(b1-6)]Man(a1-6)[Gal(b1-4)GlcNAc(b1-3)Gal(b1-4)GlcNAc(b1-3)Gal(b1-4)GlcNAc(b1-3)Gal(b1-4)GlcNAc(b1-2)Man(a1-3)]Man(b1-4)GlcNAc(b1-4)[Fuc(a1-6)]GlcNAc
# Procedure, shortened: as §1
# [11] = target: Gal(b1-4)GlcNAc(b1-3)Gal(b1-4)GlcNAc(b1-3)Gal(b1-4)GlcNAc(b1-3)Gal(b1-4)GlcNAc(b1-3)Gal(b1-4)GlcNAc(b1-2)Man(a1-3)[Gal(b1-4)GlcNAc(b1-3)Gal(b1-4)GlcNAc(b1-3)Gal(b1-4)GlcNAc(b1-3)Gal(b1-4)GlcNAc(b1-3)Gal(b1-4)GlcNAc(b1-2)Man(a1-6)]Man(b1-4)GlcNAc(b1-4)GlcNAc
# Procedure, shortened: as §1
# [12] = target: Gal(b1-4)GlcNAc(b1-3)Gal(b1-4)GlcNAc(b1-3)Gal(b1-4)GlcNAc(b1-3)Gal(b1-4)GlcNAc(b1-3)Gal(b1-4)GlcNAc(b1-2)Man(a1-3)[Gal(b1-4)GlcNAc(b1-3)Gal(b1-4)GlcNAc(b1-3)Gal(b1-4)GlcNAc(b1-3)Gal(b1-4)GlcNAc(b1-3)Gal(b1-4)GlcNAc(b1-2)Man(a1-6)]Man(b1-4)GlcNAc(b1-4)[Fuc(a1-6)]GlcNAc
# Procedure, shortened: as §1
# [13] = target: Gal(b1-4)GlcNAc(b1-3)Gal(b1-4)GlcNAc(b1-3)Gal(b1-4)GlcNAc(b1-3)Gal(b1-4)GlcNAc(b1-3)Gal(b1-4)GlcNAc(b1-2)[Gal(b1-4)GlcNAc(b1-3)Gal(b1-4)GlcNAc(b1-3)Gal(b1-4)GlcNAc(b1-3)Gal(b1-4)GlcNAc(b1-3)Gal(b1-4)GlcNAc(b1-6)]Man(a1-6)[Gal(b1-4)GlcNAc(b1-3)Gal(b1-4)GlcNAc(b1-3)Gal(b1-4)GlcNAc(b1-3)Gal(b1-4)GlcNAc(b1-3)Gal(b1-4)GlcNAc(b1-2)Man(a1-3)]Man(b1-4)GlcNAc(b1-4)[Fuc(a1-6)]GlcNAc
# Procedure, shortened: as §1
# [14] = target: Gal(b1-4)GlcNAc(b1-3)Gal(b1-4)GlcNAc(b1-3)Gal(b1-4)GlcNAc(b1-3)Gal(b1-4)GlcNAc(b1-3)Gal(b1-4)GlcNAc(b1-3)Gal(b1-4)GlcNAc(b1-2)Man(a1-3)[Gal(b1-4)GlcNAc(b1-3)Gal(b1-4)GlcNAc(b1-3)Gal(b1-4)GlcNAc(b1-3)Gal(b1-4)GlcNAc(b1-3)Gal(b1-4)GlcNAc(b1-3)Gal(b1-4)GlcNAc(b1-2)Man(a1-6)]Man(b1-4)GlcNAc(b1-4)GlcNAc
# Procedure, shortened: as §1
# [15] = target: Gal(b1-4)GlcNAc(b1-3)Gal(b1-4)GlcNAc(b1-3)GalNAc
# Procedure, shortened: as §1
# [16] = target: Gal(b1-4)GlcNAc(b1-3)Gal(b1-4)GlcNAc(b1-3)[Gal(b1-4)GlcNAc(b1-3)Gal(b1-4)GlcNAc(b1-6)]GalNAc
# Procedure, shortened: as §1
# [17] = target: Gal(b1-4)GlcNAc(b1-3)Gal(b1-4)GlcNAc(b1-6)[Gal(b1-3)]GalNAc
# Procedure, shortened: as §1
# [18] = target: Gal(b1-4)GlcNAc(b1-3)Gal(b1-4)[Fuc(a1-3)]GlcNAc(b1-3)Gal(b1-4)[Fuc(a1-3)]GlcNAc
# Procedure, shortened: as §1
# [19] = target: Gal(b1-4)GlcNAc(b1-3)GalNAc
# Procedure, shortened: as §1
# [20] = target: Gal(b1-4)GlcNAc(b1-3)[Fuc(a1-3)GlcNAc(b1-6)]Gal(b1-4)Glc
# Procedure, shortened: as §1
# [21] = target: Gal(b1-4)GlcNAc(b1-3)[Gal(b1-4)GlcNAc(b1-6)]Gal(b1-4)GlcNAc
# Procedure, shortened: as §1
# [22] = target: Gal(b1-4)GlcNAc(b1-3)[GlcNAc(b1-6)]Gal(b1-4)GlcNAc
# Procedure, shortened: as §1
# [23] = target: Gal(b1-4)GlcNAc(b1-6)Gal(b1-4)GlcNAc
# Procedure, shortened: as §1
# [24] = target: Gal(b1-4)GlcNAc(b1-6)GalNAc
# Procedure, shortened: as §1
# [25] = target: Gal(b1-4)GlcNAc(b1-6)[Gal(b1-3)]GalNAc
# Procedure, shortened: as §1
# [26] = target: Gal(b1-4)GlcNAc(b1-6)[Gal(b1-4)GlcNAc(b1-3)]GalNAc
# Procedure, shortened: as §1
# Gal(b1-4)GlcNAc6P = target: Gal(b1-4)GlcNAc6P
# Procedure, shortened: as §1
# Gal(b1-6)Gal = target: Gal(b1-6)Gal
# Procedure, shortened: as §1
# Gal3S(b1-3)GalNAc = target: Gal3S(b1-3)GalNAc
# Procedure, shortened: as §1
# Gal3S(b1-3)GlcNAc = target: Gal3S(b1-3)GlcNAc
# Procedure, shortened: as §1
# [27] = target: Gal3S(b1-3)[Fuc(a1-4)]GlcNAc
# Procedure, shortened: as §1
# Gal3S(b1-4)Glc = target: Gal3S(b1-4)Glc
# Procedure, shortened: as §1
# Gal3S(b1-4)Glc6S = target: Gal3S(b1-4)Glc6S
# Procedure, shortened: as §1
# Gal3S(b1-4)GlcNAc = target: Gal3S(b1-4)GlcNAc
# Procedure, shortened: as §1
# [28] = target: Gal3S(b1-4)[Fuc(a1-3)]Glc6S
# Procedure, shortened: as §1
# [29] = target: Gal3S(b1-4)[Fuc(a1-3)]GlcNAc
# Procedure, shortened: as §1
# [30] = target: Gal3S(b1-4)[Fuc(a1-3)]GlcNAc6S
# Procedure, shortened: as §1
# Gal3S4S(b1-4)GlcNAc = target: Gal3S4S(b1-4)GlcNAc
# Procedure, shortened: as §1
# Gal3S6S(b1-4)GlcNAc = target: Gal3S6S(b1-4)GlcNAc
# Procedure, shortened: as §1
# Gal3S6S(b1-4)GlcNAc6S = target: Gal3S6S(b1-4)GlcNAc6S
# Procedure, shortened: as §1
# Gal4S(b1-4)GlcNAc = target: Gal4S(b1-4)GlcNAc
# Procedure, shortened: as §1
# Gal4S6S(b1-4)GlcNAc = target: Gal4S6S(b1-4)GlcNAc
# Procedure, shortened: as §1
# Gal6P(b1-4)GlcNAc = target: Gal6P(b1-4)GlcNAc
# Procedure, shortened: as §1
# Gal6S(b1-3)GlcNAc = target: Gal6S(b1-3)GlcNAc
# Procedure, shortened: as §1
# Gal6S(b1-3)GlcNAc6S = target: Gal6S(b1-3)GlcNAc6S
# Procedure, shortened: as §1
binder,measurement,setting,value
B1,glycan array binding signal (z-score),[1],2.68
same,glycan array binding signal (z-score),[2],0.892
same,glycan array binding signal (z-score),[3],3.44
same,glycan array binding signal (z-score),[4],2.01
same,glycan array binding signal (z-score),[5],3.04
same,glycan array binding signal (z-score),[6],4.24
same,glycan array binding signal (z-score),[7],4.41
same,glycan array binding signal (z-score),[8],5.03
same,glycan array binding signal (z-score),[9],4.24
same,glycan array binding signal (z-score),[10],4.44
same,glycan array binding signal (z-score),[11],4.06
same,glycan array binding signal (z-score),[12],6.46
same,glycan array binding signal (z-score),[13],6.39
same,glycan array binding signal (z-score),[14],4.39
same,glycan array binding signal (z-score),[15],0.14
same,glycan array binding signal (z-score),[16],0.129
same,glycan array binding signal (z-score),[17],0.076
same,glycan array binding signal (z-score),[18],-0.321
same,glycan array binding signal (z-score),[19],-0.238
same,glycan array binding signal (z-score),[20],-0.11
same,glycan array binding signal (z-score),[21],-0.216
same,glycan array binding signal (z-score),[22],-0.225
same,glycan array binding signal (z-score),[23],-0.281
same,glycan array binding signal (z-score),[24],-0.216
same,glycan array binding signal (z-score),[25],-0.296
same,glycan array binding signal (z-score),[26],-0.244
same,glycan array binding signal (z-score),Gal(b1-4)GlcNAc6P,-0.309
same,glycan array binding signal (z-score),Gal(b1-6)Gal,-0.339
same,glycan array binding signal (z-score),Gal3S(b1-3)GalNAc,-0.289
same,glycan array binding signal (z-score),Gal3S(b1-3)GlcNAc,-0.173
same,glycan array binding signal (z-score),[27],-0.223
same,glycan array binding signal (z-score),Gal3S(b1-4)Glc,-0.211
same,glycan array binding signal (z-score),Gal3S(b1-4)Glc6S,-0.261
same,glycan array binding signal (z-score),Gal3S(b1-4)GlcNAc,-0.224
same,glycan array binding signal (z-score),[28],-0.203
same,glycan array binding signal (z-score),[29],-0.344
same,glycan array binding signal (z-score),[30],-0.15
same,glycan array binding signal (z-score),Gal3S4S(b1-4)GlcNAc,-0.291
same,glycan array binding signal (z-score),Gal3S6S(b1-4)GlcNAc,-0.289
same,glycan array binding signal (z-score),Gal3S6S(b1-4)GlcNAc6S,-0.276
same,glycan array binding signal (z-score),Gal4S(b1-4)GlcNAc,-0.329
same,glycan array binding signal (z-score),Gal4S6S(b1-4)GlcNAc,-0.28
same,glycan array binding signal (z-score),Gal6P(b1-4)GlcNAc,-0.299
same,glycan array binding signal (z-score),Gal6S(b1-3)GlcNAc,-0.225
same,glycan array binding signal (z-score),Gal6S(b1-3)GlcNAc6S,-0.274
